Data published in patent US20250066451A1 (SWEDISH ORPHAN BIOVITRUM AB PUBL, published 2025).
Numbering of substitutions follows the chain as printed. Names and notes keep the numbering of the source. Values joined by “and” are separate entries in the source; they are usually repeats but may differ in a detail not shown here. Equal values may be shown once. Read-outs that look alike come from different tables or passages of the source.

T1: human IL-1R-I on Normal Human Dermal Fibroblasts (NHDF) cells (human, UniProt P14778 18-569)
T1 sequence (looked up): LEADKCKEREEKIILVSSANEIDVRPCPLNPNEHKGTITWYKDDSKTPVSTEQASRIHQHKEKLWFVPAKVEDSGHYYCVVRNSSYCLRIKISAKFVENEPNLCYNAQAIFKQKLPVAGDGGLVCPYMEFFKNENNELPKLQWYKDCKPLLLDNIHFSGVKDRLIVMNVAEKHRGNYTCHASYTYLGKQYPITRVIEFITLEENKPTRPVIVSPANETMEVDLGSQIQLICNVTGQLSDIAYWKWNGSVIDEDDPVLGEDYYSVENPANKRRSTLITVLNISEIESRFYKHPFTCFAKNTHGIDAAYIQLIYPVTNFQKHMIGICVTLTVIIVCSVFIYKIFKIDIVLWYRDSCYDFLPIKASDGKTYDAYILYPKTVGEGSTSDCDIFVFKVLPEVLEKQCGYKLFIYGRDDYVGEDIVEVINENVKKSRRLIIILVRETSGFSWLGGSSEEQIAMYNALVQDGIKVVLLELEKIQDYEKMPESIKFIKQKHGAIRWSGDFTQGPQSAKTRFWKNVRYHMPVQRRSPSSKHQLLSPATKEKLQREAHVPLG

T2: IL-1R-I on cells (TF-1 cells, NHDF cells, human whole blood) (human, UniProt P14778 18-569)
T2 sequence (looked up): T1 sequence (looked up)

T3: human IL-1R-I (R&D systems cat. no. 269-1R/CF) (human, UniProt P14778 18-332, limits assumed)
T3 construct: Soluble bought protein used as analyte in BLI; also called hIL-1R-I; hIL-1RI
T3 sequence (looked up): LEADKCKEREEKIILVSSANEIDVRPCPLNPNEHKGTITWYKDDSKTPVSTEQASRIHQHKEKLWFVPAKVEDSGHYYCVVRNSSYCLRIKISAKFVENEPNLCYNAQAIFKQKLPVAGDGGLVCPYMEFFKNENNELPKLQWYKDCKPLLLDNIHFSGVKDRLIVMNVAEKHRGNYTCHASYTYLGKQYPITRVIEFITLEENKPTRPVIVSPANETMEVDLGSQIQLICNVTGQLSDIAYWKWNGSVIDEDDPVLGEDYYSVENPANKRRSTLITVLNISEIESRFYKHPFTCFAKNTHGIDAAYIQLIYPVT

T4: cynomolgus IL-1R-I-His6 (cynomolgus, UniProt P14778 19-332 (human entry), limits assumed)
T4 construct: expressed in FreeStyle 293-F cells and IMAC purified; also called cIL-1R-I-His6
T4 chain: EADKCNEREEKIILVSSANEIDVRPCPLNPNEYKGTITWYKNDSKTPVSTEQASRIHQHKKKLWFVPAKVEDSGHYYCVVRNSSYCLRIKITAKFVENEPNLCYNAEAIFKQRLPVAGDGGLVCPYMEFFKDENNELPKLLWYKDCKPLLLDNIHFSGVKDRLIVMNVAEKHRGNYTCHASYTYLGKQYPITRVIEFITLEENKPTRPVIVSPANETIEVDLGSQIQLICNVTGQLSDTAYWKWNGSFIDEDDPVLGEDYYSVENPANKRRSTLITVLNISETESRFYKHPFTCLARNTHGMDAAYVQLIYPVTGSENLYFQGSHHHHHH

B1: PSI0653 (Z18754[N297A]-IgG1 Fc) (Fc fusion)
chain: AEAKYAKEVEEIQMEIFRLPNLTRRQYTAFIRKLLDDPSQSSELLSEAKKLSESQAPKASGGGGSGGGGS[sequence of human IgG1 Fc with changes omitted]
B2: PSI0656 (Z18754[S228P]-IgG4 Fc) (Fc fusion)
chain: AEAKYAKEVEEIQMEIFRLPNLTRRQYTAFIRKLLDDPSQSSELLSEAKKLSESQAPKASGGGGSGGGGS[sequence of human IgG4 Fc with S228P (EU numbers) omitted]
B3: PSI0536: Z18754[V1A; D2E; N52S; D53E]-AS(G4S)2-IgG1 Fc (Fc fusion)
chain: AEAKYAKEVEEIQMEIFRLPNLTRRQYTAFIRKLLDDPSQSSELLSEAKKLSESQAPKASGGGGSGGGGS[sequence of human IgG1 Fc omitted]
B4: PSI0537: Z19151[V1A; D2E; N52S; D53E]-AS(G4S)2-IgG1 Fc (Fc fusion)
chain: B3 chain with E11D, M14L, R18A
B5: PSI0536 (Z18754[V1A; D2E; N52S; D53E]-AS(G4S)2-IgG1 Fc) (Fc fusion)
chain: B3 chain
notes: expressed in E. coli
B6: PSI0534 (Z18831[V1A; D2E; N52S; D53E]-AS(G4S)2-IgG1 Fc) (Fc fusion)
chain: B3 chain with V9I, I12V, R18Y
notes: expressed in E. coli
B7: PSI0535 (Z18846[V1A; D2E; N52S; D53E]-AS(G4S)2-IgG1 Fc) (Fc fusion)
chain: B3 chain with V9I, R18H
notes: expressed in E. coli
B8: PSI0537 (Z19151[V1A; D2E; N52S; D53E]-AS(G4S)2-IgG1 Fc) (Fc fusion)
chain: B3 chain with E11D, M14L, R18A
notes: expressed in E. coli
B9: PSI0538 (Z18874[V1A; D2E; N52S; D53E]-AS(G4S)2-IgG1 Fc) (Fc fusion)
chain: B3 chain with V9L, E11A, R18H
B10: PSI0539 (Z18760[V1A; D2E; N52S; D53E]-AS(G4S)2-IgG1 Fc) (Fc fusion)
chain: B3 chain with V9T, E11A, I12V, R18A

Key:
[1] = molecular target: T1, human IL-1R-I on Normal Human Dermal …; test: cell-based or functional assay
[2] = molecular target: T2, IL-1R-I on cells (TF-1 cells, NHDF …); test: cell-based or functional assay
[3] = molecular target: T1, human IL-1R-I on Normal Human Dermal …; test: cell-based or functional assay; remark: listed apart in the source
[4] = molecular target: T3, human IL-1R-I (R&D systems cat. no. …); test: BLI (OctetRED96), Z-Fc loaded on Protein A sensor, IL-1R-I as analyte, 1:1 Langmuir global fit
[5] = molecular target: T4, cynomolgus IL-1R-I-His6; test: as above

IC50 (pM), inhibition of IL-1B induced IL-6 release in NHDF cells [1] [pM] | median IC50, IL-1B induced IL-6 release in human whole blood [2] [nM] | IC50 (pM), inhibition of IL-1B induced IL-6 release in NHDF cells [3] | Kd [4] [nM] | koff [4] [s⁻¹] | kon [4] [M⁻¹ s⁻¹] | Kd [5] [nM] | koff [5] [s⁻¹] | kon [5] [M⁻¹ s⁻¹] | Binder
4.3 |  |  |  |  |  |  |  |  | B1
8.4 |  |  |  |  |  |  |  |  | B2
 | 0.32 |  |  |  |  |  |  |  | B3
 | 1.25 |  |  |  |  |  |  |  | B4
 |  | 66 pM and 45 pM | 0.75 | 0.000679 | 899000 | 14 | 0.0234 | 1.7e+06 | B5
 |  | 140 pM and 110 pM | 1.6 | 0.000642 | 404000 | 28 | 0.0299 | 1.08e+06 | B6
 |  | 80 pM and 50 pM | 0.72 | 0.000421 | 583000 | 11 | 0.0166 | 1.49e+06 | B7
 |  | 260 pM and 200 pM | 1.2 | 0.00102 | 841000 | 31 | 0.0548 | 1.78e+06 | B8
 |  | 87 pM and 70 pM |  |  |  |  |  |  | B9
 |  | 240 pM and 110 pM |  |  |  |  |  |  | B10
